Holding throughout (experiment): CLSI broth microdilution.
A general note: Dilution methods test growth across graded concentrations, often in twofold steps.

Compound in one assay: CCCCCOc1ccc(-c2ccc(-c3ccc(C(=O)N[C@H]4C[C@@H](O)[C@@H](O)NC(=O)[C@@H]5[C@@H](O)[C@@H](C)CN5C(=O)[C@H]([C@@H](C)O)NC(=O)[C@H]([C@H](O)[C@@H](O)c5ccc(O)cc5)NC(=O)[C@@H]5C[C@@H](O)CN5C(=O)[C@H]([C@@H](C)O)NC4=O)cc3)cc2)cc1 [anidulafungin]
Compound in another assay: CC[C@H](C)C[C@H](C)CCCCCCCCC(=O)N[C@H]1C[C@@H](O)[C@@H](NCCN)NC(=O)[C@@H]2[C@@H](O)CCN2C(=O)[C@H]([C@H](O)CCN)NC(=O)[C@H]([C@H](O)[C@@H](O)c2ccc(O)cc2)NC(=O)[C@@H]2C[C@@H](O)CN2C(=O)[C@H]([C@@H](C)O)NC1=O [caspofungin]
Compound in the next assay: Nc1[nH]c(=O)ncc1F [flucytosine]
Compound in another assay: CCC(C)n1ncn(-c2ccc(N3CCN(c4ccc(OCC5COC(Cn6cncn6)(c6ccc(Cl)cc6Cl)O5)cc4)CC3)cc2)c1=O [itraconazole]
Compound in the next assay: CCCCCOc1ccc(-c2cc(-c3ccc(C(=O)N[C@H]4C[C@@H](O)[C@@H](O)NC(=O)[C@@H]5[C@@H](O)[C@@H](C)CN5C(=O)[C@H]([C@H](O)CC(N)=O)NC(=O)[C@H]([C@H](O)[C@@H](O)c5ccc(O)c(OS(=O)(=O)O)c5)NC(=O)[C@@H]5C[C@@H](O)CN5C(=O)[C@H]([C@@H](C)O)NC4=O)cc3)no2)cc1 [micafungin]
Compound in a further assay: OC(Cn1cncn1)(Cn1cncn1)c1ccc(F)cc1F [fluconazole]
Compound in a further assay: C[C@@H](c1ncncc1F)[C@](O)(Cn1cncn1)c1ccc(F)cc1F [voriconazole]
Compound in the next assay: CC[C@@H]([C@H](C)O)n1ncn(-c2ccc(N3CCN(c4ccc(OC[C@@H]5CO[C@@](Cn6cncn6)(c6ccc(F)cc6F)C5)cc4)CC3)cc2)c1=O [posaconazole]
Compound in a further assay: C[C@@H]1[C@H](O)[C@@H](C)/C=C/C=C/C=C/C=C/C=C/C=C/C=C/[C@H](O[C@@H]2O[C@H](C)[C@@H](O)[C@H](N)[C@@H]2O)C[C@@H]2O[C@](O)(C[C@@H](O)C[C@@H](O)[C@H](O)CC[C@@H](O)C[C@@H](O)CC(=O)O[C@H]1C)C[C@H](O)[C@H]2C(=O)O [amphotericin B]

MIC of invasive clinical C. tropicalis isolates, CLSI broth microdilution (fluconazole 0.12-256 mg/L, up to 1,024 for the azole-resistant cluster and its neighbour group; other ranges not stated); higher = less susceptible. Call: susceptible or wild type [S] / resistant or non-wild type [R] by CLSI breakpoints or cut-offs; intermediate and dose-dependent carry no call. '<=' and '>=' at the end values are inferred; the source marks only some of them. Isolates are numbered anew.

A word on the MIC: it is the lowest concentration found to suppress growth.

On to “Candida tropicalis isolate 298 (ERG11 copies: 2, Erg11p: no key change)”, for which the MIC with anidulafungin is 0.03 mg/L [S]; with caspofungin it was 0.03 mg/L [S]; in the assay with flucytosine, at most 0.06 mg/L [S]; with itraconazole, 0.5 mg/L [S]; with micafungin, 0.03 mg/L [S]; with fluconazole it was 4 µg/mL. The minimal inhibitory concentration (MIC) with voriconazole came out at 0.25 µg/mL; with posaconazole it was 0.5 mg/L [R]; in the assay with amphotericin B, 1 mg/L [S].
As to “Candida tropicalis isolate 121 (ERG11 copies: 2, Erg11p: no key change)”, the minimal inhibitory concentration (MIC) with anidulafungin was 0.12 mg/L [S]; with caspofungin, 0.06 mg/L [S]; with flucytosine, at most 0.06 mg/L [S]; in the assay with itraconazole, 0.12 mg/L [S]; in the assay with micafungin, 0.015 mg/L [S]; with fluconazole it was 1 mg/L [S]. The MIC with voriconazole amounted to 0.06 mg/L [S]; with posaconazole, 0.25 mg/L [S]; with amphotericin B, 1 mg/L [S].
“Candida tropicalis isolate 88 (ERG11 copies: 2, Erg11p: no key change)”: the MIC with anidulafungin is at most 0.015 mg/L [S]; with caspofungin, 0.03 mg/L [S]; with flucytosine it was at most 0.06 mg/L [S]; with itraconazole, 0.25 mg/L [S]; with micafungin it was 0.015 mg/L [S]; in the assay with fluconazole it was 1 mg/L [S]. Besides, the MIC with voriconazole was found to be 0.06 mg/L [S]; in the assay with posaconazole it was 0.25 mg/L [S]; in the assay with amphotericin B, 1 mg/L [S].
As to “Candida tropicalis isolate 242 (ERG11 copies: 2, Erg11p: no key change)”, the minimum inhibitory concentration (MIC) is 0.03 mg/L [S] with anidulafungin; 0.015 mg/L [S] with caspofungin; at most 0.06 mg/L [S] in the assay with flucytosine; 0.12 mg/L [S] with itraconazole; 0.03 mg/L [S] in the assay with micafungin; 1 mg/L [S] with fluconazole. In addition, the MIC with voriconazole was determined as 0.06 mg/L [S]; in the assay with posaconazole, 0.12 mg/L [S]; in the assay with amphotericin B it was 1 mg/L [S].
Regarding “Candida tropicalis isolate 152 (ERG11 copies: 2, Erg11p: no key change)”, the minimal inhibitory concentration (MIC) is at most 0.015 mg/L [S] with anidulafungin; 0.03 mg/L [S] with caspofungin; at most 0.06 mg/L [S] with flucytosine; 0.015 mg/L [S] with itraconazole; 0.015 mg/L [S] with micafungin; 0.25 mg/L [S] in the assay with fluconazole. In addition, the minimum inhibitory concentration (MIC) in the assay with voriconazole is at most 0.008 mg/L [S]; in the assay with posaconazole, 0.015 mg/L [S]; with amphotericin B, 0.5 mg/L [S].
As to “Candida tropicalis isolate 87 (ERG11 copies: 7, Erg11p: Y132F, S154F (heterozygous))”, the MIC in the assay with anidulafungin is at most 0.015 mg/L [S]; with caspofungin, 0.03 mg/L [S]; in the assay with flucytosine, at most 0.06 mg/L [S]; with itraconazole, 1 mg/L [R]; with micafungin it was 0.03 mg/L [S]; with fluconazole it was 512 mg/L [R]. Also, the minimal inhibitory concentration (MIC) is at least 8 mg/L [R] with voriconazole, 1 mg/L [R] with posaconazole and 1 mg/L [S] in the assay with amphotericin B.
Regarding “Candida tropicalis isolate 159 (ERG11 copies: 2, Erg11p: no key change)”, the MIC is 0.12 mg/L [S] in the assay with anidulafungin; 0.25 mg/L [S] with caspofungin; at most 0.06 mg/L [S] in the assay with flucytosine; 0.25 mg/L [S] with itraconazole; 0.06 mg/L [S] in the assay with micafungin; 2 mg/L [S] in the assay with fluconazole. Moreover, the results for the MIC with voriconazole, with posaconazole and with amphotericin B were 0.12 mg/L [S], 0.12 mg/L [S] and 0.5 mg/L [S], respectively.
On to “Candida tropicalis isolate 384 (ERG11 copies: 2, Erg11p: no key change)”, for which the minimal inhibitory concentration (MIC) came to 0.06 mg/L [S] in the assay with anidulafungin; 0.03 mg/L [S] in the assay with caspofungin; 0.12 mg/L [S] with flucytosine; 0.25 mg/L [S] with itraconazole; 0.03 mg/L [S] with micafungin; 2 mg/L [S] with fluconazole. Further, the results for the minimal inhibitory concentration (MIC) with voriconazole, with posaconazole and with amphotericin B were 0.12 mg/L [S], 0.25 mg/L [S] and 1 mg/L [S], respectively.
In the case of “Candida tropicalis isolate 183 (ERG11 copies: 2, Erg11p: no key change)”, the MIC was 0.03 mg/L [S] with anidulafungin; 0.03 mg/L [S] with caspofungin; at most 0.06 mg/L [S] in the assay with flucytosine; 0.12 mg/L [S] with itraconazole; 0.03 mg/L [S] with micafungin; 1 mg/L [S] in the assay with fluconazole. Also, the MIC came to 0.06 mg/L [S] with voriconazole, 0.06 mg/L [S] with posaconazole and 1 mg/L [S] with amphotericin B.
“Candida tropicalis isolate 243 (ERG11 copies: 2, Erg11p: no key change)”: the minimum inhibitory concentration (MIC) stood at 0.25 mg/L [S] with anidulafungin; 0.12 mg/L [S] with caspofungin; 0.12 mg/L [S] in the assay with flucytosine; 0.12 mg/L [S] with itraconazole; 0.03 mg/L [S] with micafungin; 1 mg/L [S] with fluconazole. Besides, the minimum inhibitory concentration (MIC) is 0.06 mg/L [S] with voriconazole, 0.06 mg/L [S] in the assay with posaconazole and 1 mg/L [S] in the assay with amphotericin B.
As for “Candida tropicalis isolate 423 (ERG11 copies: 8, Erg11p: Y132F, S154F (heterozygous))”, the MIC is 0.12 mg/L [S] with anidulafungin; 0.06 mg/L [S] in the assay with caspofungin; at most 0.06 mg/L [S] with flucytosine; 0.5 mg/L [S] with itraconazole; 0.06 mg/L [S] with micafungin; 512 mg/L [R] in the assay with fluconazole. The minimal inhibitory concentration (MIC) was at least 8 mg/L [R] with voriconazole, 0.5 mg/L [R] in the assay with posaconazole and 0.5 mg/L [S] with amphotericin B.
Turning to “Candida tropicalis isolate 93 (ERG11 copies: 2, Erg11p: no key change)”, the MIC with anidulafungin is 0.12 mg/L [S]; with caspofungin, 0.03 mg/L [S]; with flucytosine, at most 0.06 mg/L [S]; in the assay with itraconazole, 0.5 mg/L [S]; in the assay with micafungin it was 0.03 mg/L [S]; in the assay with fluconazole, 2 mg/L [S]. Moreover, the MIC with voriconazole came out at 0.12 mg/L [S]; in the assay with posaconazole it was 0.5 mg/L [R]; with amphotericin B it was 1 mg/L [S].

Source of the values: the supplement of paper PMC10724272.
